± gives the standard deviation of the averaged measurements. Some of the results follow.
These sequences were tested on PfAP2-EXP AP2 domain (GST-tagged) (assay: gcPBM binding intensity (ln(normalized median fluorescence intensity)); higher = stronger DNA binding).
Method in brief: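 An Agilent 4 × 180k array of primer-extended double-stranded 36-bp intergenic genomic probes, with negative controls, was incubated for 1 h with GST-tagged P. falciparum DNA-binding domains expressed in E. coli. Alexa488 anti-GST antibody detected bound protein, scanned at 488 nm. Binding intensity is the highest Masliner-normalised natural-log median intensity across replicate spots of either probe orientation.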

Sequence | gcPBM binding intensity (ln)
AATCACAAATAAAATAATATGACACAATATAAAATA [CACACA_negctrl_site537] | 8.61 ± 0.37
AAATGTTATAACTCTTGAAAAAACAAAATATCATCA [CACACA_negctrl_site1156] | 8.41 ± 0.47
ACTTTACAATATATATGTACATATTAATAAACATAT [XGTACX_site3689] | 8.74 ± 0.42
AAAATAATATATGTATGTACATATACACATATAGAA [XGTACX_site2218] | 8.4 ± 0.092
GAGTTTTTTTAATGATGTACATTTTAAAAATAAACG [XGTACX_site1036] | 8.48 ± 0.21
TTTATTATACAAAATTGTACTTTATAATTTTATGTA [XGTACX_site5846] | 8.38 ± 0.16
AAATATTACGGAATAAAGAGCTTTTAAATAATTTTA [CACACA_negctrl_site1700] | 8.11 ± 0.52
AGAAACCTTGTTAGTTAGCATATATATATATATATA [CACACA_negctrl_site372] | 10.2 ± 0.49
AAATATAAACGGCACACACACAAAAAAAGAAAAAAA [CACACA_site649] | 8.71 ± 0.52
TATTTTATACATATTTTACACACTAATATATACATA [CACACA_site7998] | 8.56 ± 0.34
GAATATAATCTGTATTGTACGAAAGTTGAACACTTG [XGTACX_site8895] | 8.44 ± 0.31
TGAGCATAAAAAGGGTGTACTTAAATATATTATATA [XGTACX_site7556] | 8.54 ± 0.35
TATATATATATATATATATATACAAATATATATTAT [CACACA_negctrl_site1729] | 10.1 ± 0.27
TTTAGATAATTCATTACACACATGTATTTATATATA [CACACA_site5847] | 8.46 ± 0.33
TTGTATTATTATGTTGCACACATTTTATATAAAATA [CACACA_site3641] | 9.06 ± 0.31
ATAAAAGATATTTTTACACACTTTTGATGAGATCGT [CACACA_site3053] | 8.43 ± 0.38
GGTTGTATAAGTTTTTGTACATATATATATATATAT [XGTACX_site7487] | 10.2 ± 0.49
TTCAAGGTTTTAGATTGTACAATTATTATATATATA [XGTACX_site8982] | 9.01 ± 0.042
ATACCAACATATTATACACACCTTTATATTTTTTTT [CACACA_site5217] | 8.8 ± 0.33
ATATGTAGATGATATTATTACTTTTCAAAAATTCAA [CACACA_negctrl_site933] | 8.21 ± 0.39
TAATAAGAAATAACAGGTACACATATATAAATATTA [XGTACX_site2976] | 8.54 ± 0.33
TTTTTCATTAATACAAGTACAAAATGATGTTGACAT [XGTACX_site1475] | 8.3 ± 0.3

Sequence | gcPBM binding intensity (ln)
AAGTATAAAAAAAGGCGTACAAAAAAAAAAAAAAAA [XGTACX_site7309] | 8.41 ± 0.5
TGTGCCCAAAATTATGCACACACCTAAAATTAATTT [CACACA_site2914] | 8.69 ± 0.071
ATGGTAGTTCTCCATGCATGCCTTTTTATTATCATA [TGCATGCA_site681] | 9.28 ± 0.38
TTTTTGTAAAAACACACACACAAACAGAAAAAATAA [CACACA_site2076] | 9.04 ± 0.52
ATTATCATAATGTTCACACATATGGTATATATAGAT [CACACA_site6113] | 8.62 ± 0.35
TTTTATCTTTTTTTATTTTAATGTATTATTTTTATG [XGTACX_negctrl_site24] | 8.73 ± 0.59
ACTATTTAGTCTGGTGGTACTTTATATATAATTTCT [XGTACX_site5618] | 8.53 ± 0.91
ATATGTGTATGTGCGTGTACATATCTATACAGTTGT [XGTACX_site6540] | 8.79 ± 0.16
ATAAATAAAGGACACACACACACACTAGAAAAAAAA [CACACA_site5450] | 8.84 ± 0.64
TTGTGCTTGATATCACGGACAAGCTCATATTATATA [XGTACX_site4553] | 8.37 ± 0.35
AAAATAAAATTAGTTGCATGCAACTTAAACAGAAAT [TGCATGCA_site860] | 10.3 ± 0.35
TATATTATTAAGATATGTACATAATTATAAATTTAA [XGTACX_site6848] | 8.52 ± 0.45
ATGAAAAAATTTATATGTACTTAAAATATAATCATA [XGTACX_site1228] | 8.19 ± 0.32
TATAAATATAAATATACACACATATTTATATTTATA [CACACA_site7053] | 8.37 ± 0.37
CTCTATAAATGCTGCACACACATTTAATTATTTAAG [CACACA_site2582] | 8.63 ± 0.25
TATAAATAAAAACACACACACACATATATATATATA [CACACA_site2268] | 9.99 ± 0.39
TTTTACAATGAAAGGTGTACAAGTAACAGTAGAACA [XGTACX_site1528] | 9.01 ± 0.25
AAATGAAATACATCCTGTACATAGTAATGCTAACAA [XGTACX_site6600] | 8.6 ± 0.38
GATATATATTAATATACACACACACCGATATATATA [CACACA_site8462] | 8.78 ± 0.43
TATTTTTATATTTTTGCACACATTCTTTACTCTTCA [CACACA_site2211] | 9.13 ± 0.3
AAAAATTTTATATTCACACACATATATATATATATA [CACACA_site624] | 10.2 ± 0.42
AACAAATACAGACACACACACACACTAATAAAAAAA [CACACA_site8067] | 8.66 ± 0.52

Sequence | gcPBM binding intensity (ln)
AAATTCCACCAACACACACACATATAAATAAATAAA [CACACA_site1233] | 8.52 ± 0.53
AATAAATAGATAAGCACACAAGCATATAGACATATA [CACACA_site222] | 8.6 ± 0.49
TTTTGAAACATATGATGTACACGAACATTTAAAAAA [XGTACX_site474] | 8.79 ± 0.39
TTTATATTTTATAAATTATTCATAAATATATTTGTA [TGCATGCA_negctrl_site175] | 8.1 ± 0.43
AAATTTGGTGAAGGATGTACTTTACCTAATACTTGT [XGTACX_site4825] | 8.49 ± 0.33
AAAACAAAAAAATTTTGTACGAAACAATACTGTAAG [XGTACX_site7992] | 8.61 ± 0.38
TATATATATTGTTATTGTACACAAATATAGGAAATA [XGTACX_site7110] | 8.56 ± 0.23
ATAAATTAAACAAACACACACGTTCTTTTATTTACT [CACACA_site4556] | 8.53 ± 0.45
AAAAAAATATATTCCTAATTTATGATTAAAAGGAAT [CACACA_negctrl_site751] | 8.1 ± 0.3
TTTTTTTTTGGGTGTACACATGAATATATATTTTTT [CACACA_site5254] | 8.77 ± 0.32
AGAATTATATCATGGTGTACTTATTTGTTTATTTCT [XGTACX_site5795] | 8.73 ± 0.38
GAATAAATAAAAATATGTACATAAATATATATATAT [XGTACX_site8858] | 9.88 ± 0.22
AAAAAAAAAAAATATATATATATATATATAATATTT [GTGCAC_negctrl_site678] | 8.3 ± 0.24
AAAAAAAAATAAAAAAGTACAGGTAAATATATATAT [XGTACX_site5812] | 9.42 ± 0.16
AAGACAAATATGTATTGTACGAACGCTTTTTAATTA [XGTACX_site1961] | 8.53 ± 0.47
ATACTTTAAAATAATACACACATGGAAAATAAAATT [CACACA_site697] | 8.76 ± 0.57
TTTATAAAATATCTTTCACACATTACTATGTATTAT [CACACA_site5148] | 8.44 ± 0.37
ATAAAAGTTTAATATTGTACGAACATGCGTTTCTAA [XGTACX_site1487] | 8.3 ± 0.46
ATAAATAGAATAAAATGTACATGTAATACATATATA [XGTACX_site5475] | 8.53 ± 0.3
TTCTTAAAAAATCAAACACACATATATATATACATA [CACACA_site2296] | 8.56 ± 0.37
GTTTAGATAAAAGGGCGTACATCTATTTTTGACTAA [XGTACX_site7170] | 8.38 ± 0.35
AAAAAAAAAAAAAAAACACACAATTGAATTATTAAG [CACACA_site2864] | 8.51 ± 0.26

Sequence | gcPBM binding intensity (ln)
TTTTATTATTAAACATGTACCCATATTATTGTTATG [XGTACX_site5563] | 8.7 ± 0.37
TTATTGCGCACAATTTGTACATATATATATATAGAA [XGTACX_site7573] | 9.05 ± 0.2
AATTTATTAATACAAAGTACTTTCTAATATGAATTT [XGTACX_site8013] | 8.37 ± 0.42
ATATTTATACTATACACACCCAATTTAAAAAAAAAT [CACACA_site1163] | 8.71 ± 0.52
GAAAAATTAAAATGTGGTACAATAAAATTTTATTCA [XGTACX_site5030] | 8.41 ± 0.33
GTAAGAAACAGACACACACACATATAAATATAAATA [CACACA_site6515] | 8.77 ± 0.64
TATTGAAAAAGTGGAAAAAAGTACATCATACGGGAA [CACACA_negctrl_site1091] | 9.04 ± 0.37
TATATACATTTTTATGTGCACATTTTATTTTTAAAT | 9.15 ± 0.31
TAAATCACAAAATTATGTACTAAGAAGGAGCAACAT [XGTACX_site6742] | 8.88 ± 0.32
TATACCTTAATATACACACATACATATATATATATA [CACACA_site1339] | 9.96 ± 0.54
GGGGAAAAAGCAGGTTGTACAGTGATGTCCATATAA [XGTACX_site7606] | 8.77 ± 0.32
TAACAAAGTAAAAGAACATGCAAACACGCACACAGA [TGCATGCA_site374] | 9.02 ± 0.2
AGTGTATTAAATTTTGAACACACAAAATAAAACATA [CACACA_site8483] | 8.54 ± 0.29
TTTTAATTTAAAAATTAATTTATATATATATATATA [TGCATGCA_negctrl_site447] | 10.3 ± 1
TTTAGACTTTTCTATAGTACATATTATATATATATA [XGTACX_site6532] | 9.66 ± 0.2
AAACGTTTATTTTATTGTACATATGAAAAATGCTTC [XGTACX_site6896] | 8.68 ± 0.36
AACATTATCAAATAAACCATAAATCAATTCAATATG [CACACA_negctrl_site696] | 8.47 ± 0.2
AAAAAAAAAAAAAATTGTACGGATTCTTTTTTTTTT [XGTACX_site2898] | 8.4 ± 0.39
ATATTTTTTTTTTTCACACACATTTAGATTGTATTA [CACACA_site3137] | 8.65 ± 0.54
TTGTATAAAAAACTAAAAAATATAAAATAATAAGTG [CACACA_negctrl_site1704] | 8.62 ± 0.45
ATTACATTTTTGTTTTGTACATATATTTTATAAACA [XGTACX_site494] | 8.78 ± 0.37
CGTAATAATTAATGTTGTACCCACCAAAAAAATTAA [XGTACX_site8592] | 8.49 ± 0.26

Source: the supplement of paper PMC11417369
